Reference: paper PMC13581290, “A systematic interactome of Saccharomyces cerevisiae SET1C expands its functional landscape and identifies candidate regulatory connections” (eLife, 2026)
No constants are given. Whether binding was seen depends on the method and setting. For part of these data: In cells and extracts the contact can be indirect. Some entries that bind do so weakly or less than the wild type. For part of these data: Tags and fused reporters may be left off the sequences shown. Blank lines part the entries; values can stand above or below the substance they belong to.

The chains behind the UniProt entries cited, without tags or fusion partners. Where a name states a change or a piece, a line headed by the entry shows the natural chain unless it says otherwise. Residues count along the entry.
UniProt P22082: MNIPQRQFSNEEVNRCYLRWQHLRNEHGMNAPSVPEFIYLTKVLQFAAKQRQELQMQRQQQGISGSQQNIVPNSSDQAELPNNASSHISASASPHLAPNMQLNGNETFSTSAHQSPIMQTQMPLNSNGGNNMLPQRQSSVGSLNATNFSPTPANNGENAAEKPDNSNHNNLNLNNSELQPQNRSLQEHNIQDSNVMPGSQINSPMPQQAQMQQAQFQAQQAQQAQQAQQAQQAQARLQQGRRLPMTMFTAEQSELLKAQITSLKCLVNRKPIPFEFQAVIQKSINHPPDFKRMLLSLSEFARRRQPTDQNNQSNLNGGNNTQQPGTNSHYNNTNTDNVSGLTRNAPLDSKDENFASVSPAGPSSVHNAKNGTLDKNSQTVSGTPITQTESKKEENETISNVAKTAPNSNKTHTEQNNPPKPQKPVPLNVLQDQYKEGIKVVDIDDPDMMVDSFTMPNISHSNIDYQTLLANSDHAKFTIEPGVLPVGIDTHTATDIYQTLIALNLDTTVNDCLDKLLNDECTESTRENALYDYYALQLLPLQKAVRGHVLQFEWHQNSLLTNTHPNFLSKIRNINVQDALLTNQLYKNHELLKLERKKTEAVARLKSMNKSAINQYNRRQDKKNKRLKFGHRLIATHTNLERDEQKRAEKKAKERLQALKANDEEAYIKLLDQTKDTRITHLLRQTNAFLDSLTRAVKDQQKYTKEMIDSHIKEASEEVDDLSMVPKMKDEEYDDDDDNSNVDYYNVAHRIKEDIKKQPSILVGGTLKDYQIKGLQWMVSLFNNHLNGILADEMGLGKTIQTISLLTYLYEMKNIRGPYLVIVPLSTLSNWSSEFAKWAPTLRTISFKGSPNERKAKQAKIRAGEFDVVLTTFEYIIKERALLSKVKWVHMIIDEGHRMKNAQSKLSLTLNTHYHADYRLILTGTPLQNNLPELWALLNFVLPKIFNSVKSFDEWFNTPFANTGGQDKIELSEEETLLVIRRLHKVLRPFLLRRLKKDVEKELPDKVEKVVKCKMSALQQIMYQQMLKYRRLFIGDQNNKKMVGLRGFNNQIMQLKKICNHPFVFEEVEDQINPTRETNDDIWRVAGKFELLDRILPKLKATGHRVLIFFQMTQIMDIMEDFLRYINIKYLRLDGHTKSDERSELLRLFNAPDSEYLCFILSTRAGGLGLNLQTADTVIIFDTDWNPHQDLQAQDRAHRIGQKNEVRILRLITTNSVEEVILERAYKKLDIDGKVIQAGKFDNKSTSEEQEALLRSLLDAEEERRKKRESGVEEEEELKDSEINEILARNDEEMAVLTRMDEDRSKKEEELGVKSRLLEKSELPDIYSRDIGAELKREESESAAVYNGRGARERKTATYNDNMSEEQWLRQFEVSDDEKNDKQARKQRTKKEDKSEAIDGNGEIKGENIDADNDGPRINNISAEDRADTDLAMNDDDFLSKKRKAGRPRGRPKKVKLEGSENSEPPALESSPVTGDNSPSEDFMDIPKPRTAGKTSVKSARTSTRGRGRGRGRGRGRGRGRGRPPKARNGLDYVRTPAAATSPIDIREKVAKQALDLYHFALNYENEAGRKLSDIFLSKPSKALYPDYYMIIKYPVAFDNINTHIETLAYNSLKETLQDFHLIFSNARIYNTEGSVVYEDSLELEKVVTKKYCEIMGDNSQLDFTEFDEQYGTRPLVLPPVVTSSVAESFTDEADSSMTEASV
GST-Snf2C-AT-hook: residues 1384-1547 of P22082
GST-Snf2C-Bromo: residues 1542-1655 of P22082
UniProt P29469: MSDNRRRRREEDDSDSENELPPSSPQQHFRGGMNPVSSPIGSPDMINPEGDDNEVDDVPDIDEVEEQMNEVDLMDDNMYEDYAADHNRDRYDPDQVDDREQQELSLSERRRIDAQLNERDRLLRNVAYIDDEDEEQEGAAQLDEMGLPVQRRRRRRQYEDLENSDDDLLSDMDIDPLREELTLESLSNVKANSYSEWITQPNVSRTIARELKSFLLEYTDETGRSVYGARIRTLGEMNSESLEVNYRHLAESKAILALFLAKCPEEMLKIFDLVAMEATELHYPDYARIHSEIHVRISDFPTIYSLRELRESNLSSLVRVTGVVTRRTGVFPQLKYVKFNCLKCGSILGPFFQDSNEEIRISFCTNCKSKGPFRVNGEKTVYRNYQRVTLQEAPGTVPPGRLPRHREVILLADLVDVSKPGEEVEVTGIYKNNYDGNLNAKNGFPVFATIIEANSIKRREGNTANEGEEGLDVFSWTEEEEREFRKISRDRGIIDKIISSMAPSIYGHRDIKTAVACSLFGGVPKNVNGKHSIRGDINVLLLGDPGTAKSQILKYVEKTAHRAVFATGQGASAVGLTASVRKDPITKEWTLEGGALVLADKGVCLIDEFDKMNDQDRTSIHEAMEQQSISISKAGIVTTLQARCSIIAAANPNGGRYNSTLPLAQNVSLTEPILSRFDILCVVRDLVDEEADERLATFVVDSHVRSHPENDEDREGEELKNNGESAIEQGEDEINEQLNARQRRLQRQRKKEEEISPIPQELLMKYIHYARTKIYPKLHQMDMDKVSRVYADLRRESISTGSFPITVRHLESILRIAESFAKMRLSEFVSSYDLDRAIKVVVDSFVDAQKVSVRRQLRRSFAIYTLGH
UniProt P38827: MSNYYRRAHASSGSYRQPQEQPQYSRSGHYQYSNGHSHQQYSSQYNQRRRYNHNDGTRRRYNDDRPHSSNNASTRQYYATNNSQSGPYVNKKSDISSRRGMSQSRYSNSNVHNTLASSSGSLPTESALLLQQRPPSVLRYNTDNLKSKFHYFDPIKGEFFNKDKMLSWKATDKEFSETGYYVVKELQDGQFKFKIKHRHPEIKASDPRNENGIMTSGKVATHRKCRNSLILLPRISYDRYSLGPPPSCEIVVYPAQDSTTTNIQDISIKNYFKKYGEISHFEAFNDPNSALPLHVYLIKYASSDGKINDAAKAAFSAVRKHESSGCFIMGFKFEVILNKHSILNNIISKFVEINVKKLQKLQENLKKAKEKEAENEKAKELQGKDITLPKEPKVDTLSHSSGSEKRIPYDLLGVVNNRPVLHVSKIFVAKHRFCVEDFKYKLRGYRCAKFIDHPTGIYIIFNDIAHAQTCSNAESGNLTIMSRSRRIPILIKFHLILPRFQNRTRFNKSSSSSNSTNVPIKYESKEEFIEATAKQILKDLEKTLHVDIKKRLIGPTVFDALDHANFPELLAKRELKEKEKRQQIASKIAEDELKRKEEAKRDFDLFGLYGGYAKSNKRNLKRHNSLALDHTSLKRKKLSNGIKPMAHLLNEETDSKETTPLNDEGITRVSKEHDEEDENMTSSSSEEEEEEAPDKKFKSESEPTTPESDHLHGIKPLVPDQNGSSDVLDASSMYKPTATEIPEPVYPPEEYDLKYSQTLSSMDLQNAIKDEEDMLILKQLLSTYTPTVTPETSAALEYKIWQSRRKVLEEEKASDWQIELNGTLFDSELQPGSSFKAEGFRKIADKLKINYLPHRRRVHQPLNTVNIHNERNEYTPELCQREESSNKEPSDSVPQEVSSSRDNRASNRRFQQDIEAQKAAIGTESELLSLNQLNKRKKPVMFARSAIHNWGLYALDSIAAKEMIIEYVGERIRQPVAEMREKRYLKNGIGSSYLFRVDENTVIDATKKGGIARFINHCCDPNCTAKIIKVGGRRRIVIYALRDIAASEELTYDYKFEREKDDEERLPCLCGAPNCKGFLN
UniProt P53939: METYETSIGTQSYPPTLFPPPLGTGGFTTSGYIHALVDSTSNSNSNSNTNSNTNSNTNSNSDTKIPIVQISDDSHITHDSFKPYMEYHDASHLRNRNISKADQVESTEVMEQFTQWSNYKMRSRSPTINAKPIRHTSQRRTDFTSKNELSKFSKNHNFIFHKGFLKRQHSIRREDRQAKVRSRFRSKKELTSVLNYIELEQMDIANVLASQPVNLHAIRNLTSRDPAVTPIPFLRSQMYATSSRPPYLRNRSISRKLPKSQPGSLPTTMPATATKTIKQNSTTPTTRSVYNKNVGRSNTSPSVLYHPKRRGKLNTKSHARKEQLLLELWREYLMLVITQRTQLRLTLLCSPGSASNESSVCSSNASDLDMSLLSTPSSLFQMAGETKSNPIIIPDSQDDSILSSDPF

How the values were obtained:
GST-Spp1 (S. cerevisiae) = biological target: T1, GST-Spp1 (S. cerevisiae) (UniProt Q03012); experiment: pull-down; GST fusion proteins as baits, 35S-labeled in vitro-translated proteins as preys; autoradiography; only the target purified
T1 sequence: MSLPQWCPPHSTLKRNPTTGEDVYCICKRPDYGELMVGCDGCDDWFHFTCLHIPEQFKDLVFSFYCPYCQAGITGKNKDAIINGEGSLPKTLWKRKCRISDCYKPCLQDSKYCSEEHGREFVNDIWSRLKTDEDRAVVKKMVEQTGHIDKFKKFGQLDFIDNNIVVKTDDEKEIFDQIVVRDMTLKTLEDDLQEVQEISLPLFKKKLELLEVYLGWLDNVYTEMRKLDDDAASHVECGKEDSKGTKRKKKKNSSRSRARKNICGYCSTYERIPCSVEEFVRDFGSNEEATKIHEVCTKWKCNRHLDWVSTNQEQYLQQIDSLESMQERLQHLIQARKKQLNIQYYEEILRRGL

Snf2-Myc (S. cerevisiae) = Snf2-Myc (S. cerevisiae) (UniProt P22082); experiment: co-IP; yeast lysate in TMG 50 (10 mM Tris-HCl pH 8.0, 50 mM NaCl, 10% glycerol); Myc-tagged Snf2 precipitated overnight with 9E10 antibody and protein-G dynabeads; blot with anti-Set1 antibodies
[1] = biological target: GST-Snf2C-Bromo (S. cerevisiae) (UniProt P22082); experiment: pull-down; GST-tagged Snf2 fragments (250 nM) on glutathione-Sepharose 4B with SET1C or C762SET1C (25 nM), BSA 0.2 mg/ml; 20 mM Tris-Cl pH 7.9, 150 mM NaCl, 0.2 mM EDTA, 20% glycerol, 0.1% NP-40; 4°C, 3 hr; immunoblotting; both purified
GST-Mcm2 (S. cerevisiae) = GST-Mcm2 (S. cerevisiae) (UniProt P29469); experiment: pull-down; GST fusion proteins as baits, 35S-labeled in vitro-translated proteins as preys; autoradiography; only the target purified
[2] = biological target: T2, Sdc1, two-hybrid fusion (S. cerevisiae) (UniProt Q03323); experiment: two-hybrid; 10 screens (Hybrigenics) of a genomic S. cerevisiae library in pP6 by mating; baits fused to the Gal4 DNA-binding domain or LexA; selection on medium lacking tryptophan, leucine and histidine, with 3AT if necessary
T2 sequence: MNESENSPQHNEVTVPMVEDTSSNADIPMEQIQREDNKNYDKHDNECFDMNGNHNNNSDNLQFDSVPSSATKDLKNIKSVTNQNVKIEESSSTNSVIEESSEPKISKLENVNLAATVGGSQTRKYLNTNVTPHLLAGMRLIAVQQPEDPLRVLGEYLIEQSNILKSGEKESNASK

[3] = biological target: T3, Bre2, two-hybrid fusion (S. cerevisiae) (UniProt P43132); experiment: as above
T3 sequence: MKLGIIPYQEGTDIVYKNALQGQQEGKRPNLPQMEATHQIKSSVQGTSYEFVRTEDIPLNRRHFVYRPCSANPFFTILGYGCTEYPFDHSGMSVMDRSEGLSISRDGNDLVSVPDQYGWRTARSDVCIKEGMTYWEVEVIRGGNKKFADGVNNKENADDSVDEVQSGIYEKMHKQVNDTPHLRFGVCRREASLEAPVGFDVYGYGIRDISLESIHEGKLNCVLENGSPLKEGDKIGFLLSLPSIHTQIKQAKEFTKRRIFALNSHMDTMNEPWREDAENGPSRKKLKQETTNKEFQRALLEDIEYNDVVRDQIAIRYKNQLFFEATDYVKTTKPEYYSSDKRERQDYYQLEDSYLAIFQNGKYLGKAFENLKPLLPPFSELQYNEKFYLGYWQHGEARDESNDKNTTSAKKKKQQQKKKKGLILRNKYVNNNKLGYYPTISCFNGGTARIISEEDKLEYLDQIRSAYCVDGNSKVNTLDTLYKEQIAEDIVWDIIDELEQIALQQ

GST-Shg1 (S. cerevisiae) = biological target: T4, GST-Shg1 (S. cerevisiae) (UniProt P38337); experiment: pull-down; GST fusion proteins as baits, 35S-labeled in vitro-translated proteins as preys; autoradiography; only the target purified
T4 sequence: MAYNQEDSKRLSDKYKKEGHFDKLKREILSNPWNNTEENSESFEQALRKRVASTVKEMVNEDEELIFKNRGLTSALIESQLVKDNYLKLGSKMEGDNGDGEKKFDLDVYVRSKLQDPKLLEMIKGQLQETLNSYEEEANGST

GST-Sdc1 (S. cerevisiae) = biological target: T5, GST-Sdc1 (S. cerevisiae) (UniProt Q03323); experiment: as above
T5 sequence: T2 sequence

[4] = biological target: T6, Prp22-AID-6FLAG (S. cerevisiae) (UniProt P24384); experiment: co-IP; W303 extract; Prp22-AID-6FLAG precipitated with a FLAG antibody on Protein A/G Dynabeads overnight at 4°C in 50 mM Tris-HCl pH 7.5, 150 mM NaCl, 0.2% NP-40; blot with anti-MYC; in the absence or presence of RNase
T6 sequence: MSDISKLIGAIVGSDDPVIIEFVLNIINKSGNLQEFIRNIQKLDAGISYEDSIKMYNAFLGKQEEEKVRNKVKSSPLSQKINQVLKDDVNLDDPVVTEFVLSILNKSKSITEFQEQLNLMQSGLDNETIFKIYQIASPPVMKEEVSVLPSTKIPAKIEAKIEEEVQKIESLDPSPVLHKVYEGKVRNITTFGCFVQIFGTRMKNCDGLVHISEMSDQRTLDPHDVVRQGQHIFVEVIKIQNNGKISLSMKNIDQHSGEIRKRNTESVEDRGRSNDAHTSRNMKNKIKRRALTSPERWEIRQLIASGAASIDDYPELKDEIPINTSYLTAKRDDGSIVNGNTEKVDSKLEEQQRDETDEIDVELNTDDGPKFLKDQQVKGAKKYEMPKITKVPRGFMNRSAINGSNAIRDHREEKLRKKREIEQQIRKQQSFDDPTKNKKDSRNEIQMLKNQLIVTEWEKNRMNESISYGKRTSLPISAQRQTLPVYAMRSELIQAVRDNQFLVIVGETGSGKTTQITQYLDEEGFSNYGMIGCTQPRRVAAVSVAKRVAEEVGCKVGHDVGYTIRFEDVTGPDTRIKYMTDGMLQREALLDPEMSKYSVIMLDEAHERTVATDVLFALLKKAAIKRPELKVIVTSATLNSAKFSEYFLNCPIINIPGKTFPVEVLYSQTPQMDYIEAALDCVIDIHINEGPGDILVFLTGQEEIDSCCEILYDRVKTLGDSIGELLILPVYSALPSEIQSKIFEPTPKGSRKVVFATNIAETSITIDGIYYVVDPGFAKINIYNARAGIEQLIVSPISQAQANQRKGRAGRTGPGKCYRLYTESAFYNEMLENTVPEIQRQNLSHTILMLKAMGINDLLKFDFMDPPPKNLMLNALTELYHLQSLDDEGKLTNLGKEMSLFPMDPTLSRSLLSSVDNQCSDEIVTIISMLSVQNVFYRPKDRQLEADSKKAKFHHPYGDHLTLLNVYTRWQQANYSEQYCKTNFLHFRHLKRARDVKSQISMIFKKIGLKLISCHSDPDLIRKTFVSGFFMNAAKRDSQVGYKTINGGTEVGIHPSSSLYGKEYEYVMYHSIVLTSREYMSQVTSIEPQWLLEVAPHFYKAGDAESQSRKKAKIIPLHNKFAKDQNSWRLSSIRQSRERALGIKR

[5] = biological target: GST-Snf2C-AT-hook (S. cerevisiae) (UniProt P22082); experiment: pull-down; GST-tagged Snf2 fragments (250 nM) on glutathione-Sepharose 4B with SET1C or C762SET1C (25 nM), BSA 0.2 mg/ml; 20 mM Tris-Cl pH 7.9, 150 mM NaCl, 0.2 mM EDTA, 20% glycerol, 0.1% NP-40; 4°C, 3 hr; immunoblotting; both purified

binding (GST-Spp1 (S. cerevisiae)): binds weakly
Substance: Mcm2, in vitro translated (from UniProt P29469 1-868)

binding (Snf2-Myc (S. cerevisiae)): binds
Substance: Set1 (endogenous) (from UniProt P38827 1-1080)

Substance: reconstituted SET1C (FLAG-Set1 and the seven other untagged subunits) (from UniProt P38827 1-1080; P39706 1-426; P36104 1-329; P38123 1-315; P43132 1-505; Q03323 1-175; Q03012 1-353; P38337 1-142) (complex)
binding [1]: no binding (tested: 250 nM GST fragment, 25 nM complex)

binding (GST-Mcm2 (S. cerevisiae)): binds weakly
Substance: Spp1, in vitro translated (from UniProt Q03012 1-353)

binding [2]: binds
Substance: Bre2, two-hybrid fusion (from UniProt P43132 1-505)

binding [3]: binds
Substance: Sdc1, two-hybrid fusion (from UniProt Q03323 1-175)

binding (GST-Shg1 (S. cerevisiae)): no binding
binding (GST-Spp1 (S. cerevisiae)): binds
binding (GST-Sdc1 (S. cerevisiae)): binds
Substance: Nis1, in vitro translated (from UniProt P53939 1-407)

binding [4]: binds
Substance: Myc-Set1 (chromosomally encoded) (from UniProt P38827 1-1080)

binding [5]: binds
Substance: SET1C762 complex (FLAG-Set1-C762 and the other untagged subunits) (from UniProt P38827 762-1080; P39706 1-426; P36104 1-329; P38123 1-315; P43132 1-505; Q03323 1-175; Q03012 1-353; P38337 1-142)
binding [1]: no binding (tested: 250 nM GST fragment, 25 nM complex)
